Holding throughout (assay): Primary Screen for Target Class Profiling of Small Molecule Inhibitors of Methyltransferases
The target of test [1] is Glycine N-methyltransferase (Homo sapiens) (UniProt Q14749). Particulars: purified enzyme, MTase-Glo SAH luminescence; measured here: GNMT inhibition; at 40 µM; stronger effect = lower value. Put shortly:
(§1)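 Each enzyme was reacted with SAM and its substrate, with compounds tested once at 40 uM; SAH formed was read by MTase-Glo luminescence.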

Test [2] addresses Guanidinoacetate N-methyltransferase (Homo sapiens) (UniProt Q14353). Particulars: purified enzyme, MTase-Glo SAH luminescence; measured here: GAMT inhibition; at 40 µM; stronger effect = lower value. Put shortly: as §1
The target in test [3] is Histamine N-methyltransferase (Homo sapiens) (UniProt P50135). As to conditions: purified enzyme, MTase-Glo SAH luminescence; measured here: HNMT inhibition; at 40 µM; stronger effect = lower value. The method in brief:
as §1

In test [4] the target is Nicotinamide N-methyltransferase (Homo sapiens) (UniProt P40261). As to conditions: purified enzyme, MTase-Glo SAH luminescence; measured here: NNMT inhibition; at 40 µM; stronger effect = lower value. The method in brief: as §1
The target in test [5] is Phenylethanolamine N-methyltransferase (Homo sapiens) (UniProt P11086). As to conditions: purified enzyme, MTase-Glo SAH luminescence; measured here: PNMT inhibition; at 40 µM; stronger effect = lower value. Put shortly:
as §1

Each structure is given as a SMILES string. Where “and” joins values, the source holds several entries; their conditions need not be identical. Identical values can stand only once. Some of the results follow. The main result of the screen is listed elsewhere. These columns were measured beside it and carry no call.
On the % scale 0 is the no-effect control and ±100 the full control effect.

`CC1CCCCCC(=O)c2c(O)cc(O)cc2CC(=O)O1` (stereo unspecified): the activity change, negative = inhibition was 2.27% in test [1]; -1.27% in test [2]; 4.8% in test [3]; -12.5% in test [4]; 1.26% in test [5].

For the compound `CC1(C)C(=O)N(c2ccc(C#N)c(C(F)(F)F)c2)C(=S)N1c1ccc(C(N)=O)c(F)c1`, the activity change, negative = inhibition is 5.91% in test [1]; 2.29% in test [2]; 5.66% in test [3]; -24.5% in test [4]; 0.343% in test [5].

As for `Cc1ccccc1C1c2cccn2-c2ccccc2CN1C(=O)Nc1cccc(Cl)c1C` (stereo unspecified), the activity change, negative = inhibition in test [1] is 14.2%; in test [2], 0%; in test [3], 8.12%; in test [4], 2.69%; in test [5] it was 10.3%.

As for `Cc1ncc2c(n1)C[C@@H]1CC[C@H]2N1S(=O)(=O)Cc1ccccc1`, the activity change, negative = inhibition in test [1] is -0.79%; in test [2], 3.08%; in test [3] it was 0.86%; in test [4], -3.91%; in test [5] it was -0.724%.

For the compound `COc1ccc(OC)c(NC(=O)N2Cc3ccccc3-n3cccc3C2c2ccccc2Cl)c1` (stereo unspecified), the activity change, negative = inhibition came out at 8.84% in test [1]; 0% in test [2]; 1.36% in test [3]; 5.28% in test [4]; 5.41% in test [5].

With `Cc1cc(C)cc(NC(=O)N2Cc3ccccc3-n3cccc3C2c2ccccc2C)c1` (stereo unspecified), the activity change, negative = inhibition in test [1] was 1.44%; in test [2] it was 1.32%; in test [3] it was -4.6%; in test [4] it was -9.83%; in test [5] it was -5.45%.

Turning to `C=CCN1CC[C@]2(C)c3cc(O)ccc3CC1[C@@H]2C`, the activity change, negative = inhibition in test [2] is 1.22%; in test [4], -8.37%; in test [5], 2.41%.

Consider `O=C(N[C@H]1CN2CCC1CC2)c1ccc(Cl)cc1`, for which the activity change, negative = inhibition in test [1] is 7.15% and -3.35%; in test [2], 8.01% and 4.59%; in test [3] it was 5.26% and 0.151%; in test [4], -4.79% and -4.21%; in test [5], 5.64% and 5.32%.

As for `O=[N+]([O-])c1ccc2nc(N3CCNCC3)ccc2c1`, the activity change, negative = inhibition in test [1] was -9.88%; in test [2] it was 10.8%; in test [3], -10.9%; in test [4] it was -2.35%; in test [5], -4.57%.

In the case of `Cc1c(Cl)cccc1NC(=O)N1Cc2ccccc2-n2cccc2C1c1cccs1` (stereo unspecified), the activity change, negative = inhibition in test [1] is 5.63%; in test [2] it was 4.88%; in test [3], -1.15%; in test [4], -10.3%; in test [5], -0.997%.

Turning to `C[C@@H]1C(=O)O[C@H]2[C@H](O)[C@@]34[C@@H]5OC(=O)[C@@]3(O[C@@H]3OC(=O)[C@@H](O)[C@@]34[C@H](C(C)(C)C)[C@H]5O)[C@@]12O`, the activity change, negative = inhibition was 3.25% in test [1]; 2.33% in test [2]; 10.9% in test [3]; -11.9% in test [4]; 7.13% in test [5].

Take `Cc1ccccc1C1=CCN(C)CC1`: the activity change, negative = inhibition was -6.35% in test [1]; -10.3% in test [2]; -20.6% in test [3]; -14.2% in test [4]; -48.9% in test [5].

Consider `C[C@@H]1C[C@@H](O)[C@]2(O)O[C@@H]3C[C@@]4(C=O)C(CC[C@@H]5C4CC[C@]4(C)[C@@](O)(C6=CC(=O)OC6)CC[C@]54O)C[C@H]3OC2O1` (stereo partly specified), for which the activity change, negative = inhibition in test [1] is -0.642%; in test [2], 3.37%; in test [3], 8.29%; in test [4], -6.51%; in test [5], 0.132%.

For the compound `N#Cc1ccc(N2CCN(C(=O)COc3ccc4[nH]cc(CCN)c4c3)CC2)cc1`, the activity change, negative = inhibition in test [1] was -45.3%; in test [2], -7.32%; in test [3], -97.9%; in test [4] it was -26.1%; in test [5], -4.25%.

As for `c1ccc2c(N3CCNCC3)cccc2c1`, the activity change, negative = inhibition in test [1] is -45.2%; in test [2] it was -8.84%; in test [3], -21%; in test [4] it was -17.9%; in test [5], -50.8%.

Consider `O=C(OC[C@H]1O[C@@H](Oc2ccc(O)cc2CO)[C@H](O)[C@@H](O)[C@@H]1O)c1ccccc1`, for which the activity change, negative = inhibition was -0.613% in test [1]; 0.479% in test [2]; 6.07% in test [3]; -10.9% in test [4]; -3.27% in test [5].

In the case of `CC[C@H]1CN2CC[C@H]1C[C@@H]2[C@@H](O)c1ccnc2ccc(OC)cc12`, the activity change, negative = inhibition is 5% in test [1]; 9% in test [2]; -21.9% in test [3]; -6.03% in test [4]; -11.3% in test [5].

With `CO[C@H]1[C@H](O)[C@H](O[C@H]2CC[C@]3(C)C4CC[C@]5(C)[C@H](C6=CC(=O)OC6)CC[C@]5(O)C4CC[C@@H]3C2)O[C@@H](C)[C@@H]1O` (stereo partly specified), the activity change, negative = inhibition in test [1] was -0.787%; in test [2], 1.54%; in test [3], 8.55%; in test [4], -8.72%; in test [5], 2.35%.

Turning to `COc1cc(NC(=O)N2Cc3ccccc3-n3cccc3C2c2ccc(F)cc2)cc(OC)c1` (stereo unspecified), the activity change, negative = inhibition in test [1] was -3.05%; in test [2] it was 7.24%; in test [3], -1.24%; in test [4], -1.95%; in test [5], 2.7%.

In the case of `CN(C)CCNC(=O)C1CNCC12CCOCC2` (stereo unspecified), the activity change, negative = inhibition in test [1] is -3.36%; in test [2], -0.588%; in test [3], -0.357%; in test [4], -10.1%; in test [5], 5.79%.

Regarding `C[C@H]1CCCC(=O)CCC/C=C/c2cc(O)cc(O)c2C(=O)O1`, the activity change, negative = inhibition in test [2] was -42.2%; in test [4] it was -48.2%; in test [5], -59.5%.

As for `COc1ccc(OC)c(NC(=O)N2Cc3ccccc3-n3cccc3C2c2ccc(F)cc2)c1` (stereo unspecified), the activity change, negative = inhibition in test [1] stood at 2.19%; in test [2], 1.05%; in test [3], 6.26%; in test [4], 6.15%; in test [5], 10.2%.

As for `COC1CC(O[C@H]2CC[C@]3(C=O)C4CC[C@]5(C)[C@@H](C6=CC(=O)OC6)CC[C@]5(O)[C@@H]4CC[C@@H]3C2)OC(C)C1O[C@@H]1O[C@H](CO)[C@@H](O[C@@H]2O[C@H](CO)[C@@H](O)[C@H](O)[C@H]2O)[C@H](O)[C@H]1O` (stereo partly specified), the activity change, negative = inhibition in test [1] is 4.34%; in test [2], 2.02%; in test [3], 7.64%; in test [4], -8.83%; in test [5], 2.11%.

Take `CN1CCOC[C@H]2CCNC[C@H]21`: the activity change, negative = inhibition in test [1] is -2.82%; in test [2] it was 0.703%; in test [3], 1.63%; in test [4], -1.8%; in test [5], -0.589%.

On to `CCC(CC)c1cc([C@H]2CN3CC[C@H]2C[C@@H]3CNC(=O)C2CCC2)nc(-c2ccncc2)n1`, for which the activity change, negative = inhibition is -5.55% in test [1]; -12.7% in test [2]; -7.61% in test [3]; -15.7% in test [4]; -12.2% in test [5].

Turning to `C[C@]12CC[C@@H](O[C@@H]3O[C@H](CO)[C@@H](O)[C@H](O)[C@H]3O)C[C@@]1(O)CCC1C2CC[C@]2(C)[C@@H](C3=CC(=O)OC3)CC[C@]12O` (stereo partly specified), the activity change, negative = inhibition in test [1] was -1.57%; in test [2], -1.91%; in test [3] it was 4.42%; in test [4], -14%; in test [5], 4.21%.

With `C=CCN1C[C@@H](C)N([C@H](c2ccc(C(=O)N(CC)CC)cc2)c2cccc(OC)c2)C[C@@H]1C`, the activity change, negative = inhibition was 2.05% in test [1]; 15.7% in test [2]; 12.2% in test [3]; -6.85% in test [4]; 4.39% in test [5].

In the case of `CCc1[nH]c2ccc(OC)cc2c1CCN(C)C`, the activity change, negative = inhibition is 0.431% in test [1]; -4.74% in test [2]; -46.8% in test [3]; -14.8% in test [4]; -2.7% in test [5].

For the compound `O=C(NC1CN2CCC1CC2)c1cc2ccoc2cn1` (stereo unspecified), the activity change, negative = inhibition is 6.13% in test [1]; 9.43% in test [2]; 11.7% in test [3]; -9.2% in test [4]; -2.62% in test [5].

As to `O=C(Nc1ccccc1F)N1Cc2ccccc2-n2cccc2C1c1ccc(Cl)cc1` (stereo unspecified), the activity change, negative = inhibition was 2.99% in test [1]; 1.54% in test [2]; 0.241% in test [3]; -0.639% in test [4]; 6.19% in test [5].

For the origin of these results see PubChem BioAssay AID1745853 (National Center for Advancing Translational Sciences (NCATS), 2022).
